# Hit rate of the full screen: of about 43,000 compounds, about 200 (0.47%) were called active. Another 12% or so got no clear call; they are omitted. Calls follow the shape of the dose curve; as a rule, active = well fitted cell-killing curve with a large enough effect; inconclusive = small, poorly fitted or top-dose-only effect, or effect the other way; inactive = flat fitted curve, though single readings scatter. The list shows a part of the results.
# Experiment: Cell viability qHTS assay in S16 Pmp22-F2sN cells; also: nearly all actives have a fitted effect of over 65% in size
# Settings: S16 Pmp22-F2sN Schwann cells (luciferase reporters placed in the Pmp22 gene) viability, CellTiter-Glo, 24 h; series mostly up to 57.5 µM; activity change, negative = cytotoxicity: at the top concentration
# How it was run: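 Rat S16 Schwann reporter line, 24 h treatment with library compounds delivered at 23 nL per well. Cell viability by CellTiter-Glo luminescence.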
# % is scaled to controls: 0 for no effect and ±100 for the full control effect; potency is read from the fitted curve at half-maximal effect.
SMILES,"activity change, negative = cytotoxicity",Potency
Nc1ncc(S(=O)(=O)Nc2ccc(OC(F)(F)F)cc2)cn1,inactive: 1.22%,–
CC(=O)c1ccc(N2C(=O)Nc3ccccc3S2(=O)=O)cc1,inactive: 9.28%,–
Cc1ccc(CSc2cn(CCNC(=O)c3cccs3)c3ccccc23)cc1,inactive: 1.24%,–
Cc1ccc(N2CC(NC(=O)c3ccccc3Br)CC2=O)cc1 (stereo not given),inactive: -1.77%,–
Cc1ccccc1Cn1c(=O)n(CCCCCC(=O)NCc2ccc3c(c2)OCO3)c(=O)c2sccc21,inactive: 13%,–
O=C(Cn1ncc2c3ccccc3n(Cc3cccc(Cl)c3)c2c1=O)NCCC1=CCCCC1,inactive: -3.38%,–
CCOc1ccc(C(=O)NCCc2sc(-c3ccc(F)cc3)nc2C)cc1,inactive: 3.13%,–
CCOC(=O)c1ccc(NC(=O)CN2C(=O)c3cccnc3Sc3ccccc32)cc1,inactive: -11.2%,–
COc1ccc(Nc2ncc(C(=O)N3CCN(c4ccccc4OC)CC3)c3ccccc23)cc1,inactive: -28.8%,–
CCOc1ccc(NC(=O)Nc2c[nH]c(=O)[nH]c2=O)cc1,inactive: 2.28%,–
Cn1c(SCc2ccccc2Cl)nc(=O)c2c1NC(=O)CC2c1cc(F)ccc1F (stereo not given),inactive: -3.72%,–
CCN(CC)c1ccc(CNS(=O)(=O)c2cc3c(cc2C)NC(=O)CO3)cc1,inactive: -5.28%,–
COc1ccc(NC(=O)CSc2ncc3c(n2)-c2ccccc2N(C)S3(=O)=O)cc1Cl,inactive: 15.8%,–
CCCN1C(=O)c2oc3cc(C)cc(C)c3c(=O)c2C1c1ccc(F)cc1 (stereo not given),inactive: 9.98%,–
CCN(CC)CCCNC(=O)CCc1c(C)nc2c(c1C)c(=O)n(C)c(=O)n2C,inactive: 3.94%,–
Cc1ccc(C)c(NC(=O)c2cnc3sc(N4CCOCC4)nn3c2=O)c1,inactive: -0.596%,–
COc1ccc(-c2cc(C(F)(F)F)nc(SCC(=O)Nc3ccc(O)cc3)n2)cc1OC,inactive: 7.69%,–
Cc1ccc(NC(=O)c2cccc(NC(=O)N3CCSc4ncccc43)c2)cc1F,inactive: 10.2%,–
CCOc1ccc(CNC(=O)c2ccc(NC(=O)N3CCSc4ncccc43)cc2)cc1,inactive: -3.64%,–
COc1ccc(-c2nc3cc(NC(=O)COc4ccc(C)c(C)c4)ccc3o2)cc1,inactive: 1.99%,–
Cc1cc(=O)c2cc(C(=O)Nc3cccc(C)c3C)ccc2[nH]1,inactive: -1.91%,–
O=C(Cn1ccc2cc(S(=O)(=O)N3CCCCCC3)ccc21)NCc1cccc(Cl)c1,inactive: 5.01%,–
CN(C)c1ccc(CNC(=O)CCCN2C(=O)CCn3nc(-c4cn(C)c5ccccc45)cc32)cc1,inactive: -19.1%,–
COCCn1c(C)cc(O)c(C(c2ccccc2Cl)N2CCCCC2)c1=O (stereo not given),inactive: -8.65%,–

SMILES,"activity change, negative = cytotoxicity",Potency
CCCNc1ncnc2c1c(-c1ccccc1)cn2-c1ccccc1,inactive: 0.408%,–
CCn1cc(C(=O)N2CCN(c3cccc(C)c3)C(C)C2)c(=O)c2cc(S(=O)(=O)N3CCOCC3)ccc21 (stereo not given),inactive: 2.03%,–
COc1ccc(-c2nsc(NC(=O)c3oc4ccccc4c3C)n2)cc1,inactive: -6.97%,–
COc1ccc(C2=NN(CCC(=O)NCCc3ccccc3)C(=O)CC2)cc1,inactive: 1.29%,–
COCCn1c(C)cc(O)c(C(c2ccccc2F)N2CCN(c3ccccc3)CC2)c1=O (stereo not given),inactive: 15.1%,–
CCc1cccc(-n2nnc(S(=O)(=O)c3ccc(OC)cc3)c2C)c1,inactive: 1.53%,–
Cc1ccc(Cn2cc(CCC(=O)NCC(C)c3ccccc3)c3ccccc32)cc1 (stereo not given),inactive: -5.92%,–
Cc1cccc(C)c1NC(=O)C1CCCN1S(=O)(=O)c1cccc2nsnc12 (stereo not given),inactive: -3.28%,–
COc1ccc(NC(=O)Cn2nnc(-c3nc(-c4ccncc4)no3)c2N)cc1OC,inactive: 6.2%,–
Cc1c(NS(=O)(=O)c2ccc(Cl)cc2)c(=O)n(-c2ccccc2)n1C,inactive: 3.6%,–
Cc1cc(C)nc(-n2nc(C)c3c2N(Cc2ccccc2C)C(=O)CC3c2ccc(Cl)cc2)n1 (stereo not given),inactive: -8%,–
COC(=O)c1ccccc1N(C)S(=O)(=O)c1cc2c3c(c1)CC(=O)N3CCC2,inactive: -14.1%,–
CCc1ccc(NC(=O)Cn2c(=O)nc(-c3ccccc3F)c3cc(Cl)ccc32)cc1,inactive: 12.1%,–
O=C(Nc1ccc(Oc2ccccc2)cc1)c1ccc(F)c(S(=O)(=O)N2CCN(c3ccccc3F)CC2)c1,inactive: -14.6%,–
CC(C)CCSc1nnc2n(-c3ccccc3)c(=O)c3c4c(sc3n12)CC(C)CC4 (stereo not given),inactive: 1.91%,–
CCOC(=O)c1c(C)[nH]c(C)c1S(=O)(=O)NCC(=O)NCc1cccc(Br)c1,inactive: -2.21%,–
O=C(Cn1cc(S(=O)(=O)Cc2cccc(Cl)c2)c2ccccc21)NCc1ccccc1Cl,inactive: 0.945%,–
Cc1ccc2cc3cc(C(=O)N4CCN(c5ccccc5)CC4)sc3nc2c1,inactive: 17.6%,–
COc1cccc(NC(=O)/C(C#N)=C/c2ccc(-c3ccc(C)cc3)o2)c1,inactive: 2.32%,–
COc1cccc(C(=O)COC(=O)c2cc(-c3cccs3)nc3ccccc23)c1,inactive: 0.595%,–
Cc1cc(NS(=O)(=O)c2cn(C)c(C)n2)ccc1Br,inactive: -1.08%,–
COc1ccc(C(=O)NCc2nc(-c3cccc(C)c3)no2)cc1OC,inactive: -2.44%,–
Cc1nc(-c2ccc(S(=O)(=O)NCc3ccc(F)cc3)cc2)co1,inactive: -0.0089%,–
Cc1ccc(C)c(CN2C(=O)c3ccccc3S(=O)(=O)c3ccc(C(=O)NCCc4ccc(Cl)cc4)cc32)c1,inactive: -0.717%,–

SMILES,"activity change, negative = cytotoxicity",Potency
CCc1ccccc1NC(=O)C1CCN(c2nc3ccccc3[nH]2)CC1,inactive: 8.76%,–
Cc1ccc(CCNc2nc3ccccc3c3nc(-c4cccnc4)nn23)cc1,inactive: 9.04%,–
COc1cccc(CNC(=O)CCc2c(C)nc3c4c(C)cc(C)nc4nn3c2C)c1,inactive: -0.299%,–
Cc1ccccc1OCC(=O)Nc1nnc(SCc2cc(=O)n3cc(Cl)ccc3n2)s1,inactive: 15.9%,–
Cc1c(Cl)cccc1NC(=O)c1cc(S(=O)(=O)N2CCCCC2)cn1C,inactive: 2.53%,–
Cc1ccc2oc(=O)c3cc(C(=O)Nc4ccc(C)c(F)c4)sc3c2c1,inactive: -4.73%,–
CCc1nnc(NC(=O)CSc2nc3c([nH]c4ccccc43)c(=O)n2-c2ccc(F)cc2)s1,inactive: 4.32%,–
COc1ccccc1/C=C/c1onc(C)c1S(=O)(=O)N1CCC(C(=O)N2CCC(C)CC2)CC1,inactive: -1.88%,–
Cc1ccccc1NC(=O)CSc1nc2ccc(NC(=O)CCc3ccccc3)cc2s1,inactive: 13.6%,–
COC(=O)c1sccc1S(=O)(=O)N(CC(=O)Nc1ccccc1C)c1ccc(Cl)cc1,inactive: -2.68%,–
Cc1cccn2c(=O)cc(COc3ccc(NC(=O)C(C)C)cc3)nc12,inactive: 14.7%,–
Cc1ccc(-n2nc(C)c3c(C)cc(=O)n(CC(=O)Nc4cc(Cl)ccc4C)c32)cc1,inactive: -5.43%,–
Nc1ccc2oc(-c3ccccc3Br)nc2c1,inactive: -1.83%,–
COc1ccccc1NC(=O)Cn1cnc2ccc(S(=O)(=O)N3CCC(C)CC3)cc2c1=O,inactive: 5.78%,–
COc1ccc2oc(=O)c(C(=O)NCCc3c(C)[nH]c4ccc(C)cc34)cc2c1,inactive: 1.7%,–
COc1ccc(N(CC(=O)N2CCN(c3ccccc3F)CC2)S(=O)(=O)c2c(C)noc2C)cc1,inactive: -1.98%,–
Cc1ccc(CNC(=O)c2cc3c(=O)oc4ccc(C)cc4c3s2)cc1,inactive: 7.51%,–
Cc1ccccc1NC(=O)C(Cc1ccccc1)N1Cc2ccccc2C1=O (stereo not given),inactive: -8.88%,–
O=C(Nc1noc2ccccc12)c1cccc(Cl)c1Cl,inactive: 0.0499%,–
Cc1cccc(OCC(=O)Nc2ccc(S(=O)(=O)Nc3onc(C)c3C)cc2)c1C,inactive: 7.38%,–
Cc1ccc(NC(=O)C2CCCN(C(=O)c3cnn(-c4ccccc4)c3-n3cccc3)C2)cc1 (stereo not given),inactive: -1.48%,–
COc1ccc(NC(=O)Cn2c(=O)n(Cc3ccco3)c(=O)c3sc4ccccc4c32)c(OC)c1,inactive: 1.16%,–
CCOC(=O)c1ccc(OC(=O)c2cn(-c3ccc(C)cc3)c(=O)c3ccccc23)cc1,inactive: 0.21%,–
Cc1cc(OCC(=O)N(Cc2ccc(N(C)C)cc2)Cc2ccco2)cc(C)c1Cl,inactive: -19.8%,–

SMILES,"activity change, negative = cytotoxicity",Potency
Cc1nn(-c2ccccc2)c(-n2cccc2)c1C(=O)N1CCN(c2ccccc2)CC1,inactive: -6.52%,–
COc1ccc(CNC(=O)c2cc3sccc3n2Cc2ccc(F)cc2)cc1,inactive: -14.6%,–
COCCCN1C(=O)c2[nH]nc(-c3cc(C)ccc3O)c2C1c1ccc(F)cc1 (stereo not given),inactive: -8.35%,–
Cc1ccccc1Nc1sc(C(=O)c2ccccc2)c(N)c1S(C)(=O)=O,inactive: 6.25%,–
CCc1ccc(NC(=O)CN2C(=O)C3CCCN3c3ccc(S(=O)(=O)N(CC)CC)cc32)cc1 (stereo not given),inactive: -0.877%,–
Cn1cc(S(=O)(=O)N2CCCCCC2)cc1C(=O)N1CCN(c2ccccc2F)CC1,inactive: 19.7%,–
Cc1ccc(-c2nc3cc(NC(=O)Cc4ccc(Cl)cc4)ccc3o2)cc1,inactive: 0.528%,–
COc1ccc2c(Sc3ccc(C)cc3)c(C(=O)NCC(C)c3ccccc3)[nH]c2c1 (stereo not given),inactive: -0.429%,–
CCOC(=O)c1ccc(N2CC3=C(C2=O)C(c2ccc(OC)cc2)NC(=O)N3C)cc1 (stereo not given),inactive: -10.6%,–
CCc1ccc(NC(=O)Cn2c(=O)n(CCCC(=O)NCc3ccccc3Cl)c(=O)c3ccccc32)cc1,inactive: 9.64%,–
Cc1cc(NC(=O)CSc2nc(-c3cccc(F)c3)nc3c2c(=O)n(C)c(=O)n3C)no1,inactive: 1.59%,–
O=C(CCc1ccccc1)NCc1ccc2c(c1)CCN2C(=O)c1ccccc1,inactive: -2.52%,–
Nc1c(C(=O)Nc2ccc(C(F)(F)F)cc2)sc2nc(-c3cccs3)ccc12,inactive: -1.14%,–
COc1ccccc1-c1nnc(C2CCN(S(=O)(=O)c3ccc(CC(C)C)cc3)CC2)o1,inactive: -19.7%,–
COc1cccc(NC(=O)Cn2c(=O)n(-c3ccccc3)c(=O)c3ccc(C(=O)NCc4ccc5c(c4)OCO5)cc32)c1,inactive: -13.2%,–
COc1ccc(-n2c(SCC(=O)c3ccc(Cl)cc3)nc3c([nH]c4ccccc43)c2=O)cc1,inactive: 12.8%,–
COc1ccccc1N1CCN(c2ccc(=O)n(CC(=O)Nc3cc(F)ccc3C)n2)CC1,inactive: 6.07%,–
Cn1cc(C(=O)O)c(=O)c2cc(S(=O)(=O)N3CCOCC3)ccc21,–,active: 14.1 µM
CC(=O)N1CCc2c(sc3c2c(=O)n(CCc2ccccc2)c(=O)n3CC(=O)Nc2ccccc2F)C1,inactive: -13.7%,–
COc1ccccc1NC(=O)c1oc2ccccc2c1NC(=O)Cc1cccs1,inactive: -1.21%,–
COc1ccc(OCC(=O)Nc2ccc3c(c2)N(C)C(=O)c2ccccc2S3)cc1,inactive: -0.439%,–
COc1ccc(-c2cc(C(=O)Nc3c(C(=O)c4ccc(C)c(F)c4)oc4ccccc34)no2)cc1,inactive: -9.99%,–
Cc1ccc2nc(Cl)c3cc(C(=O)N4CCCC(C)C4)sc3c2c1 (stereo not given),inactive: -14.1%,–
